Assay results as given in the supplement of paper PMC4604168 (melanoma cell lines).
Some of the results follow. Many values rest on one well or one pass, so single values are uncertain.

Legend:
Experiment in all cases: cell count relative to DMSO control; melanoma cells; higher = more viable cells
Settings in all cases: library dose: low library concentration; 72 h
[1] = system: WM115
[2] = system: WM1716
[3] = system: WM1745
[4] = system: WM3526
[5] = system: WM3619
[6] = system: WM451Lu
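Further: cell number obtained by counting DAPI-stained nuclei in high-throughput microscope images with image analysis software, screen run in 1,536-well plates.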

SMILES	cell count [1]	cell count [2]	cell count [3]	cell count [4]	cell count [5]	cell count [6]
C=CCNC1=C2C[C@@H](C)C[C@H](OC)[C@H](O)[C@@H](C)/C=C(\C)[C@H](OC(N)=O)[C@@H](OC)/C=C\C=C(/C)C(=O)NC(=CC1=O)C2=O [Tanespimycin] + COc1cc2ncnc(Nc3ccc(Oc4ccccc4)cc3)c2cc1OC [SrcI1] (first compound 0.002 µM, partner dose 2 µM)	98.4%	105%	85%	88.2%	95%	141%
CNC(=O)c1cc(Oc2ccc(NC(=O)Nc3ccc(Cl)c(C(F)(F)F)c3)cc2)ccn1 [sorafenib] + CCc1ccc(CCOc2ccc(CC3SC(=O)NC3=O)cc2)nc1 [pioglitazone] (first compound 0.4 µM, partner dose 2 µM)	109%	108%	93.9%	96.9%	118%	86.9%
CN1CCN(c2ccc3nc(-c4c(N)c5c(F)cccc5[nH]c4=O)[nH]c3c2)CC1 [Dovitinib] + CC(=O)c1c(C)c2cnc(Nc3ccc(N4CCNCC4)cn3)nc2n(C2CCCC2)c1=O [palbociclib] (first compound 0.1 µM, partner dose 0.04 µM)	90.1%	80.5%	68.2%	62.4%	70.4%	85.5%
C=CCNC1=C2C[C@@H](C)C[C@H](OC)[C@H](O)[C@@H](C)/C=C(\C)[C@H](OC(N)=O)[C@@H](OC)/C=C\C=C(/C)C(=O)NC(=CC1=O)C2=O [Tanespimycin] + COc1cc(N2CCC(N3CCN(C)CC3)CC2)ccc1Nc1ncc(Cl)c(Nc2ccccc2S(=O)(=O)C(C)C)n1 [NVP-TAE684] (first compound 0.002 µM, partner dose 0.08 µM)	84.5%	99.7%	90.4%	92.4%	87.9%	89.7%
CN1CCN(c2ccc3nc(-c4c(N)c5c(F)cccc5[nH]c4=O)[nH]c3c2)CC1 [Dovitinib] + COc1ccc(-c2ccc3c(N4CCOCC4)nc(N4C[C@@H](C)O[C@@H](C)C4)nc3n2)cc1CO [KU0063794] (first compound 0.1 µM, partner dose 0.02 µM)	104%	115%	98.7%	120%	119%	102%
C[C@@H](Oc1cc(-c2cnn(C3CCNCC3)c2)cnc1N)c1c(Cl)ccc(F)c1Cl [Crizotinib] + Nc1cccc2c1CN(C1CCC(=O)NC1=O)C2=O [lenalidomide] (first compound 0.2 µM, partner dose 1 µM)	99.8%	96.4%	104%	79.2%	102%	98.5%
C=CCNC1=C2C[C@@H](C)C[C@H](OC)[C@H](O)[C@@H](C)/C=C(\C)[C@H](OC(N)=O)[C@@H](OC)/C=C\C=C(/C)C(=O)NC(=CC1=O)C2=O [Tanespimycin] + CN(NC(=O)CC(=O)NN(C)C(=S)c1ccccc1)C(=S)c1ccccc1 [STA4783] (first compound 0.002 µM, partner dose 0.006 µM)	72.4%	77.9%	53.9%	104%	65.3%	88.9%
C[C@@H](Oc1cc(-c2cnn(C3CCNCC3)c2)cnc1N)c1c(Cl)ccc(F)c1Cl [Crizotinib] + C#Cc1cccc(Nc2ncnc3cc(OCCOC)c(OCCOC)cc23)c1 [erlotinib] (first compound 0.2 µM, partner dose 0.8 µM)	81.1%	92.9%	78.5%	86.5%	99.6%	92.4%
CN1CCN(c2ccc3nc(-c4c(N)c5c(F)cccc5[nH]c4=O)[nH]c3c2)CC1 [Dovitinib] + Oc1nc(-c2ccc(C(F)(F)F)cc2)nc2c1CSCC2 [XAV939] (first compound 0.1 µM, partner dose 2 µM)	89.9%	66.8%	75.3%	97.5%	100%	127%
CN1CCN(c2ccc3nc(-c4c(N)c5c(F)cccc5[nH]c4=O)[nH]c3c2)CC1 [Dovitinib] + CC1(C)NC(=O)N(c2ccc([N+](=O)[O-])c(C(F)(F)F)c2)C1=O [nilutamide] (first compound 0.1 µM, partner dose 1 µM)	87%	114%	102%	71.7%	99.9%	118%
CNC(=O)c1cc(Oc2ccc(NC(=O)Nc3ccc(Cl)c(C(F)(F)F)c3)cc2)ccn1 [sorafenib] + COc1ccc(Cl)c(Nc2nc3ccccc3nc2NS(=O)(=O)c2cccc(NC(=O)C(C)(C)N)c2)c1 [XL147] (first compound 0.4 µM, partner dose 0.8 µM)	98.2%	86.3%	81.8%	121%	75.4%	144%
